Numbering of substitutions follows the chain as printed; changes in the protein carry UniProt numbers. The list shows a part of the results.

T1: RBFOX1 RRM RbFoxmut (Fox-RRM*) (Homo sapiens, UniProt Q9NWB1 109-208, R118D;E147R;N151S;E152T)
T1 sequence: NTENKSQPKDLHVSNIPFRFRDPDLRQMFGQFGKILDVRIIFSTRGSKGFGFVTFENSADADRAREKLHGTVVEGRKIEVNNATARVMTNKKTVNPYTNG

B1: GCGAGCG (DNA:RNA)
RNA: GGGAGACCGGAAUUCAGAUUGUCCGCGAGCGUUAAAUCCCGUCGUAGCCACCA
DNA 1: CAATCTGAATTCCGGTCTCCC
DNA 2: TGGTGGCTACGACGGGATT
B2: ACCGGCG (DNA:RNA)
RNA: B1 RNA with G25A, G27C, A28G
DNA 1: CAATCTGAATTCCGGTCTCCC
DNA 2: TGGTGGCTACGACGGGATT
B3: AGUAGGA (DNA:RNA)
RNA: B1 RNA with G25A, C26G, G27U, C30G, G31A
DNA 1: CAATCTGAATTCCGGTCTCCC
DNA 2: TGGTGGCTACGACGGGATT
B4: UAAGACU (DNA:RNA)
RNA: B1 RNA with G25U, C26A, G27A, A28G, G29A, G31U
DNA 1: CAATCTGAATTCCGGTCTCCC
DNA 2: TGGTGGCTACGACGGGATT
B5: UGUGAUA (DNA:RNA)
RNA: GGGAGACCGGAAUUCAGAUUGUCCUGUGAUAUUAAAUCCCGUCGUAGCCACCA
DNA 1: CAATCTGAATTCCGGTCTCCC
DNA 2: TGGTGGCTACGACGGGATT
B6: AAGCUGA (DNA:RNA)
RNA: B1 RNA with G25A, C26A, A28C, G29U, C30G, G31A
DNA 1: CAATCTGAATTCCGGTCTCCC
DNA 2: TGGTGGCTACGACGGGATT
B7: ACAAGAU (DNA:RNA)
RNA: B1 RNA with G25A, G27A, C30A, G31U
DNA 1: CAATCTGAATTCCGGTCTCCC
DNA 2: TGGTGGCTACGACGGGATT
B8: UAGUGGC (DNA:RNA)
RNA: B1 RNA with G25U, C26A, A28U, C30G, G31C
DNA 1: CAATCTGAATTCCGGTCTCCC
DNA 2: TGGTGGCTACGACGGGATT
B9: ACUGAUG (DNA:RNA)
RNA: B5 RNA with U25A, G26C, A31G
DNA 1: CAATCTGAATTCCGGTCTCCC
DNA 2: TGGTGGCTACGACGGGATT
B10: CAGUCAG (DNA:RNA)
RNA: B1 RNA with G25C, C26A, A28U, G29C, C30A
DNA 1: CAATCTGAATTCCGGTCTCCC
DNA 2: TGGTGGCTACGACGGGATT
B11: CUUGUUG (DNA:RNA)
RNA: B5 RNA with U25C, G26U, A29U, A31G
DNA 1: CAATCTGAATTCCGGTCTCCC
DNA 2: TGGTGGCTACGACGGGATT
B12: ACGGCGU (DNA:RNA)
RNA: B1 RNA with G25A, A28G, G29C, C30G, G31U
DNA 1: CAATCTGAATTCCGGTCTCCC
DNA 2: TGGTGGCTACGACGGGATT
B13: UUUAGGG (DNA:RNA)
RNA: B1 RNA with G25U, C26U, G27U, C30G
DNA 1: CAATCTGAATTCCGGTCTCCC
DNA 2: TGGTGGCTACGACGGGATT
B14: GGAUCCU (DNA:RNA)
RNA: B1 RNA with C26G, G27A, A28U, G29C, G31U
DNA 1: CAATCTGAATTCCGGTCTCCC
DNA 2: TGGTGGCTACGACGGGATT
B15: UACCAUU (DNA:RNA)
RNA: B5 RNA with G26A, U27C, G28C, A31U
DNA 1: CAATCTGAATTCCGGTCTCCC
DNA 2: TGGTGGCTACGACGGGATT
B16: GCACGAC (DNA:RNA)
RNA: B1 RNA with G27A, A28C, C30A, G31C
DNA 1: CAATCTGAATTCCGGTCTCCC
DNA 2: TGGTGGCTACGACGGGATT
B17: CAGUAAA (DNA:RNA)
RNA: B5 RNA with U25C, G26A, U27G, G28U, U30A
DNA 1: CAATCTGAATTCCGGTCTCCC
DNA 2: TGGTGGCTACGACGGGATT
B18: AUGGCGG (DNA:RNA)
RNA: B1 RNA with G25A, C26U, A28G, G29C, C30G
DNA 1: CAATCTGAATTCCGGTCTCCC
DNA 2: TGGTGGCTACGACGGGATT
B19: AAGUUCG (DNA:RNA)
RNA: B1 RNA with G25A, C26A, A28U, G29U
DNA 1: CAATCTGAATTCCGGTCTCCC
DNA 2: TGGTGGCTACGACGGGATT
B20: GCAUUAU (DNA:RNA)
RNA: B1 RNA with G27A, A28U, G29U, C30A, G31U
DNA 1: CAATCTGAATTCCGGTCTCCC
DNA 2: TGGTGGCTACGACGGGATT
B21: AUGAACA (DNA:RNA)
RNA: B1 RNA with G25A, C26U, G29A, G31A
DNA 1: CAATCTGAATTCCGGTCTCCC
DNA 2: TGGTGGCTACGACGGGATT
B22: UUCCUAG (DNA:RNA)
RNA: B1 RNA with G25U, C26U, G27C, A28C, G29U, C30A
DNA 1: CAATCTGAATTCCGGTCTCCC
DNA 2: TGGTGGCTACGACGGGATT
B23: ACAGCUC (DNA:RNA)
RNA: B5 RNA with U25A, G26C, U27A, A29C, A31C
DNA 1: CAATCTGAATTCCGGTCTCCC
DNA 2: TGGTGGCTACGACGGGATT
B24: GUGGCUG (DNA:RNA)
RNA: B1 RNA with C26U, A28G, G29C, C30U
DNA 1: CAATCTGAATTCCGGTCTCCC
DNA 2: TGGTGGCTACGACGGGATT
B25: ACUGGCA (DNA:RNA)
RNA: B1 RNA with G25A, G27U, A28G, G31A
DNA 1: CAATCTGAATTCCGGTCTCCC
DNA 2: TGGTGGCTACGACGGGATT
B26: GAGAACU (DNA:RNA)
RNA: B1 RNA with C26A, G29A, G31U
DNA 1: CAATCTGAATTCCGGTCTCCC
DNA 2: TGGTGGCTACGACGGGATT
B27: GCGUUCU (DNA:RNA)
RNA: B1 RNA with A28U, G29U, G31U
DNA 1: CAATCTGAATTCCGGTCTCCC
DNA 2: TGGTGGCTACGACGGGATT
B28: UGGACUG (DNA:RNA)
RNA: B1 RNA with G25U, C26G, G29C, C30U
DNA 1: CAATCTGAATTCCGGTCTCCC
DNA 2: TGGTGGCTACGACGGGATT
B29: AACCACU (DNA:RNA)
RNA: B1 RNA with G25A, C26A, G27C, A28C, G29A, G31U
DNA 1: CAATCTGAATTCCGGTCTCCC
DNA 2: TGGTGGCTACGACGGGATT
B30: GAGGCAG (DNA:RNA)
RNA: B1 RNA with C26A, A28G, G29C, C30A
DNA 1: CAATCTGAATTCCGGTCTCCC
DNA 2: TGGTGGCTACGACGGGATT
B31: AAUGGCU (DNA:RNA)
RNA: B1 RNA with G25A, C26A, G27U, A28G, G31U
DNA 1: CAATCTGAATTCCGGTCTCCC
DNA 2: TGGTGGCTACGACGGGATT

This assay deals with T1, RBFOX1 RRM RbFoxmut (Fox-RRM*). The assay is described as follows: EMSA; HiTS-Eq, 1 nM pool, 10 min; buffer printed only for the single-RNA assays: 10 mM Tris pH 7.5, 150 mM NaCl, 3.4 mM EDTA, 0.001% NP-40, 30 C. The note with it: tags: His6 N-terminal (pET28a); label: 5' 32P. In short, it runs like this:
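Purified wild-type or mutant RbFox RRM at increasing concentrations was equilibrated with 1 nM of 5′-radiolabelled RNA carrying 7 randomized nucleotides for 10 min in 50 µL. Unbound RNA was separated by 8% native PAGE and sequenced. Relative association constants came from read-count changes of each RNA species compared with the control reaction, normalised to the cognate motif.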
On the technique in general: Mobility shift assays separate free from complexed probe on a gel.
On to B1, for which the binding signal was 0.128 KA relative to UGCAUGU.

As for B2, the binding signal was 0.0937 KA relative to UGCAUGU. In the case of B3 it was 0.0722 KA relative to UGCAUGU; in that of B4, 0.063 KA relative to UGCAUGU; in that of B5, 0.175 KA relative to UGCAUGU.

Regarding B6, the binding signal is 0.0712 KA relative to UGCAUGU. For B7 the value was 0.102 KA relative to UGCAUGU; for B8, 0.0869 KA relative to UGCAUGU; for B9, 0.114 KA relative to UGCAUGU. For B10 the value was 0.105 KA relative to UGCAUGU. For B11 the value was 0.147 KA relative to UGCAUGU; for B12, 0.116 KA relative to UGCAUGU; for B13, 0.0837 KA relative to UGCAUGU. As for B14, the binding signal is 0.113 KA relative to UGCAUGU. In the case of B15 it was 0.0702 KA relative to UGCAUGU; in that of B16, 0.175 KA relative to UGCAUGU. In the case of B17 it was 0.0932 KA relative to UGCAUGU; in that of B18, 0.105 KA relative to UGCAUGU. In the case of B19 it was 0.185 KA relative to UGCAUGU; in that of B20, 0.141 KA relative to UGCAUGU; in that of B21, 0.111 KA relative to UGCAUGU.

On to B22, for which the binding signal was 0.105 KA relative to UGCAUGU. In the case of B23 it was 0.063 KA relative to UGCAUGU; in that of B24, 0.549 KA relative to UGCAUGU; in that of B25, 0.16 KA relative to UGCAUGU.

In the case of B26, the binding signal is 0.0695 KA relative to UGCAUGU. In the case of B27 it was 0.073 KA relative to UGCAUGU; in that of B28, 0.418 KA relative to UGCAUGU. In the case of B29 it was 0.0772 KA relative to UGCAUGU. In the case of B30 it was 0.0835 KA relative to UGCAUGU. Take B31: the binding signal was 0.111 KA relative to UGCAUGU.
